# Measured values reported in PubChem BioAssay AID1963576 (National Center for Advancing Translational Sciences (NCATS), 2024).
# Among all 46,000 compounds or so, about 60 (0.1%) were called active. Another 3% or so got no clear call; they are omitted. The call rests on the fitted dose curve; in most records, active means well fitted inhibition curve with a large enough effect; inconclusive means small, poorly fitted or top-dose-only effect; inactive means no such curve, though single readings can be large or run the other way. Some of the results follow.
# Assay: Primary qHTS assay for Inhibitors of ovarian cancer metastasis using an organotypic tumor microenvironment (TME) model. Further: nearly all actives have a fitted effect of over 65% in size.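 On activity change, negative = inhibition: plate controls were DMSO wells for no effect and tomatine positive control wells for full effect.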
# Settings: SKOV3ip1-GFP adhesion/invasion on 3D omental model, fluorescence; series mostly up to 45.8 µM; activity change, negative = inhibition: at the top concentration
# How it was run: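 Primary human omental fibroblast/mesothelial 3D culture pre-formed 48 h. SKOV3ip1-GFP cells added with compounds (0.36-46 umol/L), incubated 2 h RT/16 h 37 C, fixed; GFP cells quantified at 488/509 nm.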
Structure (SMILES),"activity change, negative = inhibition",outcome
CCOc1ccc(OC(=O)c2sc3ncn(Cc4cccc(F)c4)c(=O)c3c2C)cc1,inactive: -16.7%,–
O=C(CSc1c2c(nc3ccc(Cl)cc13)CCCC2)N1CCN(c2ccc(Cl)cc2)CC1,inactive: -5.45%,–
Cc1ccc(-c2nnc(Nc3cccc(Br)c3)c3ccccc23)cc1S(=O)(=O)N1CCN(C)CC1,inactive: -25.1%,–
O=C(Nc1ccccc1)c1cc2c(-c3ccccc3)nn(-c3ccccc3)c2s1,–,inactive
Cc1ccc(C)c(Cn2c(=O)n(CCc3ccccc3)c(=O)c3c(C)c(C)sc32)c1,inactive: 2.04%,–
Cc1cccc(C(=O)Nc2nnc(S(=O)(=O)N3CCOCC3)s2)c1,inactive: 0.377%,–
COc1ccc(Cn2nc3n(c2=O)-c2ccccc2OC3)cc1,–,inactive
CCn1cc2nc(SCc3c(F)cccc3Cl)n(CCc3ccccc3)c(=O)c2n1,–,inactive
COc1ccc(OC)c(NC(=O)C(Cc2ccccc2)NS(=O)(=O)c2ccc3c(c2)CCC(=O)N3)c1 (stereo not given),inactive: -28.3%,–
Cc1cccc(C(=O)n2nc(-c3ccco3)nc2NCc2ccccc2)c1,inactive: -3.84%,–
COc1ccc(Cl)cc1S(=O)(=O)Nc1ccc2c(c1)n(C)c(=O)n2C,inactive: -15.5%,–
CCC(=O)N1c2ccccc2CC1C(=O)NCCCN1CCN(c2ccc(F)cc2)CC1 (stereo not given),–,inactive
O=C(COCc1cc(-c2ccc3c(c2)OCO3)on1)Nc1cccc(O)c1,–,inactive
CCN(CC)S(=O)(=O)c1ccc2c(c1)N(CC(=O)Nc1cccc(C(C)=O)c1)C(=O)CO2,inactive: 9.81%,–
O=C(Nc1ccc(Br)cc1)Nc1nc2c(s1)CCCCCC2,inactive: -3.78%,–
CCOc1ccc(Br)cc1C1C(C(=O)Nc2ccccc2OC)=C(C)Nc2nnnn21 (stereo not given),inactive: -9.61%,–
CCc1ccc2oc(-c3cccc(NC(=O)c4ccc(-c5cccc([N+](=O)[O-])c5)o4)c3)nc2c1,inactive: 44.4%,–
Cc1cccc(OC(C)C(=O)N2CCC(c3nc4ccccc4o3)CC2)c1C (stereo not given),inactive: -4.23%,–
CCN1C(C(=O)c2ccccc2)=C(OC(=O)c2ccc(Cl)cc2)c2ccccc2S1(=O)=O,inactive: -19.4%,–
CCc1nnc2c3ccccc3nc(Nc3ccc(F)cc3C)n12,inactive: -3.5%,–
CC1CCc2c(sc3nnn(CC(=O)Nc4cccc(C(F)(F)F)c4)c(=O)c23)C1 (stereo not given),inactive: -10.4%,–
O=C1C(=O)N(C2CCN(C(=O)c3ccc(F)cc3)CC2)CCN1Cc1ccc(F)cc1,–,inactive
CCOc1ccc(NCc2cccn2-c2nnc(N3CCC(C(=O)NC(C)c4ccccc4)CC3)s2)cc1 (stereo not given),inactive: -5.03%,–
COc1cccc(CN2c3ccccc3-c3nc(SCC(=O)Nc4cccc(C)c4)ncc3S2(=O)=O)c1,inactive: -4.59%,–

Structure (SMILES),"activity change, negative = inhibition",outcome
COc1ccc(-c2cc(C(F)(F)F)nc(NCc3ccccc3)n2)cc1OC,–,inactive
COc1ccc(-n2c(=O)c3c4c(sc3n(Cc3ccccc3)c2=O)CCC4)c(OC)c1,inactive: -3.07%,–
CCOc1cccc(NC(=O)CSc2ncc(-c3ccc(Cl)cc3)[nH]2)c1,inactive: 3.8%,–
CCOC(=O)c1cccc(NC(=O)N2Cc3ccccc3Oc3ncccc32)c1,–,inactive
Cc1oc(-c2ccc(C(=O)N(C)Cc3ccccc3)cc2)nc1CN1CCc2ccccc21,–,inactive
CCn1c(=O)c(=O)n(CC)c2cc(N3CCCCC3)c(NC(=O)c3cccc(OC)c3)cc21,inactive: -1.74%,–
COc1ccc(N2CCN(CC(O)COc3ccc(C)c(C)c3)CC2)cc1 (stereo not given),inactive: -17.3%,–
CC(=O)N1c2ccc(S(=O)(=O)NCCc3cccc(C)c3)cc2CC1C (stereo not given),inactive: -0.471%,–
CCN(C(=O)c1cc(S(=O)(=O)N2CCCCC2)c[nH]1)c1ccc(OC)cc1,inactive: -10.3%,–
Cc1ccc(NC(=O)CC2Sc3ccccc3NC2=O)c(C)c1 (stereo not given),inactive: -3.13%,–
CN(N=O)C(=O)N[C@H]1C(O)OC(CO)[C@@H](O)[C@H]1O (stereo not given in full),inactive: -28.4%,–
CCOC(=O)c1ccc(-c2ccc(/C=C(\C#N)C(=O)Nc3cccc(C)c3)o2)cc1,–,inactive
C=Cc1ccc(CSc2nc(-c3ccc(Cl)cc3)nc3c2Cc2c(CO)cnc(C)c2O3)cc1,inactive: -13.5%,–
CCOc1ccc(-n2c(-c3ccc(OC)cc3)cc3c2CC(C)(C)CC3=O)cc1,inactive: -4.63%,–
Cc1cc(C)cc(OCCOCCn2c(-c3ccc(Cl)cc3)nc3ccccc3c2=O)c1,–,inactive
Cc1cccc(C)c1NC(=O)C1CCN(S(=O)(=O)c2cccc3nsnc23)CC1,–,inactive
N=c1n(CCO)c2ccccc2n1CCOc1ccc(F)cc1,inactive: 2.91%,–
Cc1ccc(C)c(Cn2cc(CCC(=O)NC3CCCCC3)c3ccccc32)c1,inactive: 13.9%,–
COc1cc(Cl)c(C)cc1NC(=O)CSCc1nc(-c2ccc(OC)c(OC)c2)no1,inactive: 2.79%,–
Cn1c(NCc2ccccc2F)nc2ccccc21,inactive: 3.87%,–
COc1ccc(CNC(=O)c2cnn(-c3ccc(C)cc3)c2C2CCN(C(=O)OC(C)(C)C)CC2)cc1,inactive: 4.62%,–
CCOc1ccccc1C(=O)N1CCc2cc(OC)c(OC)cc2C1COc1ccc2c(C)cc(=O)oc2c1 (stereo not given),inactive: -15%,–
Cc1ccc(-n2ncc3c(Nc4ccc5c(c4)OCCO5)ncnc32)cc1C,inactive: 3.19%,–
COc1ccc(OC)c(Nc2cc(C(=O)NCc3ccccc3)c3ccccc3n2)c1,–,inactive

Structure (SMILES),"activity change, negative = inhibition",outcome
CC(=O)c1cccc(-n2c(CCC(=O)O)ccc2-c2ccccc2)c1,inactive: -2.82%,–
Cc1ccc(NC(=O)Cn2ccn(Cc3ccc(Cl)cc3)c(=O)c2=O)cc1C,inactive: -2.89%,–
CCOC(=O)C1CCN(C(=O)c2ccc3c(c2)sc2nc(-c4ccc(OCC)cc4)cn23)CC1,inactive: -7%,–
COc1ccc(-c2nc(SCC(=O)NC3CCCC3)c(-c3ccccc3)[nH]2)cc1OC,–,inactive
O=C(CSc1ncc(S(=O)(=O)c2ccc(Br)cc2)c(=O)[nH]1)NCc1ccccc1Cl,inactive: 18.7%,–
Cc1nc2ncnn2c(C)c1CCC(=O)NCc1ccc(Cl)cc1,–,inactive
CCN1CCN(C(c2ccc(Cl)cc2)c2c(O)cc(C)n(CCOC)c2=O)CC1 (stereo not given),inactive: -5.89%,–
COc1ccc(/C=C(\NC(=O)c2ccccc2)C(=O)NC2CCCCC2)cc1,inactive: -3.7%,–
Cc1ccc(OCCSc2nc3ccccc3n2CCC(=O)O)cc1C,inactive: -9.52%,–
CCOc1ccc(NC(=O)NC(CC)Cn2nnc3ccccc3c2=O)cc1 (stereo not given),–,inactive
CCCCn1cnc2cc(NC(=O)c3cc(OC)c(OC)c(OC)c3)ccc21,inactive: 12.5%,–
Cc1cc(C)cc(N(CC(=O)Nc2ccc(C(F)(F)F)cc2)S(=O)(=O)c2c(C)[nH]c(=O)[nH]c2=O)c1,inactive: 1.4%,–
COc1ccc(-c2cc(C(=O)Oc3ccc(Cl)cc3)c3ccccc3n2)cc1,inactive: -3.66%,–
CCOc1ccccc1NC(=O)Cn1c(=O)n(Cc2ccco2)c(=O)c2cccnc21,inactive: -1.83%,–
CCc1ccccc1NC(=O)C1=CC(c2ccc3c(c2)OCO3)=NS(=O)(=O)N1C,inactive: 4.96%,–
COc1ccccc1C(=O)CC1(O)C(=O)N(CC(N)=O)c2ccccc21 (stereo not given),inactive: 1.22%,–
CC(C)c1ccc(S(=O)(=O)Nc2cc3c(cc2NCc2ccccc2)n(C)c(=O)n3C)cc1,inactive: -3.03%,–
COc1ccc(CCNC(=O)c2cc3cccc4c3n2CC(C)S4)c(OC)c1OC (stereo not given),–,inactive
CCCC(=O)Nc1c(C(=O)N2CCN(c3ccccc3)CC2)oc2ccccc12,inactive: -18.2%,–
CCC(=O)N1CCc2cc(S(=O)(=O)NC(Cc3ccccc3)C(=O)Nc3ccc(Cl)cc3)ccc21 (stereo not given),inactive: -12.8%,–
O=C(CSc1nc(-c2ccccc2)[nH]c1-c1ccc(F)cc1)NC1CCCC1,–,inactive
COc1ccccc1C(=O)N1CCC(c2c[nH]c3ccccc23)(c2c[nH]c3ccccc23)CC1,inactive: 6.56%,–
CC(C)(C)OC(=O)N1CCC(c2c(C(=O)O)cnn2-c2ccc(F)cc2F)CC1,–,inactive
O=C(CN1C(=O)COc2ccc(S(=O)(=O)N3CCCCCC3)cc21)N1CCN(c2cccc(Cl)c2)CC1,inactive: -1.6%,–

Structure (SMILES),"activity change, negative = inhibition",outcome
O=C(C1COc2cc(S(=O)(=O)Nc3ccc(Cl)cc3)ccc2O1)N1CCCC1 (stereo not given),inactive: 1.18%,–
Fc1ccc(-c2nnc(CN3CCN(c4ccccn4)CC3)o2)cc1,inactive: -3.77%,–
COc1ccc(C(=O)c2cn(Cc3ccc(F)cc3)c3c(F)cc(F)cc3c2=O)cc1,inactive: -23.3%,–
Cc1ccc(NC(=O)CSc2nc3ccc(NC(=O)c4cccc(Cl)c4)cc3s2)c(C)c1,inactive: 3.18%,–
CCOC(=O)c1ccc(N2C(=O)c3n[nH]c(-c4ccco4)c3C2c2cccc(F)c2)cc1 (stereo not given),inactive: 1.38%,–
COc1ccccc1C(=O)Nc1ccc(-c2nc3cc(C)cc(C)c3o2)cc1,inactive: 0.637%,–
CCc1ccc(S(=O)(=O)c2nnn3c2nc(N2CCN(CC)CC2)c2sccc23)cc1,–,inactive
COC(=O)c1c(NC(=O)CCCOc2cccc(C)c2)sc2c1CCC(C)C2 (stereo not given),inactive: -18.7%,–
O=C(Cn1ncc2c3ccccc3n(Cc3ccccc3)c2c1=O)NCc1ccccc1,inactive: -1.76%,–
COc1cc(C2C(C(=O)Nc3ccccc3)=C(C)Nc3nc(SCC(=O)c4ccc(C)cc4)nn32)ccc1O (stereo not given),inactive: -9.19%,–
CC(C)NS(=O)(=O)c1ccc(OCC(=O)N2CCN(c3cccc(Cl)c3)CC2)cc1,inactive: -4.7%,–
Cc1ccc(Cn2c(C)c(CNCc3ccccc3F)c(C(=O)O)c2C)cc1,inactive: -5.63%,–
CCc1ccccc1N(C)C(=O)c1cc2c(s1)-c1c(C)cccc1OC2,inactive: -3.51%,–
COc1cccc(CN2C(=O)C3(SCC(=O)N3c3ccc(F)cc3)c3ccccc32)c1 (stereo not given),inactive: 14.1%,–
COc1ccc(-c2nc3c(c(SCC(=O)Nc4cc(C)cc(C)c4)n2)Cc2c(CO)cnc(C)c2O3)cc1,inactive: 10.8%,–
Cc1nc2sc(C)c(C)n2c(=O)c1S(=O)(=O)NCCc1ccc(Cl)cc1,inactive: -3.18%,–
CN1C(=O)c2ccccc2Sc2ccc(NC(=O)NCc3ccccc3Br)cc21,–,inactive
O=C(C1CCCN(S(=O)(=O)c2cccs2)C1)N1CCN(c2ccccc2F)CC1 (stereo not given),inactive: 18.2%,–
Cc1ccc(CN(Cc2cccn2-c2nnc(N3CCCC3=O)s2)C(=O)Nc2cc(C)cc(C)c2)cc1,inactive: 4.38%,–
CC(=O)c1ccc(NC(=O)c2cn(C)c(=O)c3ccccc23)cc1,inactive: 8.32%,–
O=C(NCc1cccc(Cl)c1)c1ccc2c(c1)nc1n2CCOC1,inactive: 3.07%,–
Cc1ccc(CN(Cc2ccco2)C(=O)c2ccccc2Cl)o1,–,inactive
CCOC(=O)N1CCc2c(sc3c2c(=O)n(CCc2ccccc2)c(=O)n3Cc2ccc(C)cc2C)C1,inactive: 5.3%,–
